# The supplement of paper PMC8728848
# The list shows a part of the results.
# Tests used:
# Experiment in all cases: glycan array binding signal (z-score within array); higher = stronger binding
# Conditions in all cases: glycan notation: IUPAC condensed, linker removed
# [1] = biological target: Fuc(a1-3)GlcNAc
# Procedure, shortened: (§1)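 Glycan array data came from 3228 arrays in the Consortium for Functional Glycomics database, and only arrays with an available protein sequence were kept. Glycan names were put into IUPAC-condensed notation, and columns mapping to the same glycan were averaged. The binding signal is a within-array Z-score, averaged across arrays of one protein sequence run at different concentrations or buffers and across linkers. A negative Z-score can be read as non-binding.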
# [2] = biological target: Fuc(a1-3)[Gal(b1-4)]Glc6S
# Procedure, shortened: as §1
# [3] = biological target: Fuc(a1-3)[Gal(b1-4)]GlcNAc
# Procedure, shortened: as §1
# [4] = biological target: Fuc(a1-3)[Gal(b1-4)]GlcNAc(b1-2)Man
# Procedure, shortened: as §1
# [5] = biological target: Fuc(a1-3)[Gal(b1-4)]GlcNAc(b1-2)Man(a1-3)[Fuc(a1-3)[Gal(b1-4)]GlcNAc(b1-2)Man(a1-6)]Man(b1-4)GlcNAc(b1-4)GlcNAc
# Procedure, shortened: as §1
# [6] = biological target: Fuc(a1-3)[Gal(b1-4)]GlcNAc(b1-2)Man(a1-3)[Fuc(a1-3)[Gal(b1-4)]GlcNAc(b1-2)Man(a1-6)]Man(b1-4)GlcNAc(b1-4)[Fuc(a1-6)]GlcNAc
# Procedure, shortened: as §1
# [7] = biological target: Fuc(a1-3)[Gal(b1-4)]GlcNAc(b1-3)Gal(b1-3)[Fuc(a1-4)]GlcNAc
# Procedure, shortened: as §1
# [8] = biological target: Fuc(a1-3)[Gal(b1-4)]GlcNAc(b1-3)Gal(b1-4)[Fuc(a1-3)]GlcNAc
# Procedure, shortened: as §1
# [9] = biological target: Fuc(a1-3)[Gal(b1-4)]GlcNAc(b1-3)Gal(b1-4)[Fuc(a1-3)]GlcNAc(b1-3)Gal(b1-4)[Fuc(a1-3)]GlcNAc
# Procedure, shortened: as §1
# [10] = biological target: Fuc(a1-3)[Gal(b1-4)]GlcNAc(b1-3)GalNAc
# Procedure, shortened: as §1
# [11] = biological target: Fuc(a1-3)[Gal(b1-4)]GlcNAc(b1-6)GalNAc
# Procedure, shortened: as §1
# [12] = biological target: Fuc(a1-3)[Gal(b1-4)]GlcNAc(b1-6)[Gal(b1-3)GlcNAc(b1-3)]Gal(b1-4)Glc
# Procedure, shortened: as §1
# [13] = biological target: Fuc(a1-3)[Gal(b1-4)]GlcNAc6S
# Procedure, shortened: as §1
# [14] = biological target: Fuc(a1-3)[Gal3S(b1-4)]Glc
# Procedure, shortened: as §1
# [15] = biological target: Fuc(a1-3)[Gal3S(b1-4)]GlcNAc
# Procedure, shortened: as §1
# [16] = biological target: Fuc(a1-3)[Gal3S(b1-4)]GlcNAc6S
# Procedure, shortened: as §1
# [17] = biological target: Fuc(a1-3)[GalNAc(b1-4)]GlcNAc
# Procedure, shortened: as §1
# [18] = biological target: Fuc(a1-3)[GalNAc(b1-4)]GlcNAc6S
# Procedure, shortened: as §1
# [19] = biological target: Fuc(a1-4)GlcNAc
# Procedure, shortened: as §1
# [20] = biological target: Fuc(b1-3)GlcNAc
# Procedure, shortened: as §1
# [21] = biological target: Gal(a1-2)Gal
# Procedure, shortened: as §1
# [22] = biological target: Gal(a1-3)Gal
# Procedure, shortened: as §1
# [23] = biological target: Gal(a1-3)Gal(b1-3)GlcNAc
# Procedure, shortened: as §1
# [24] = biological target: Gal(a1-3)Gal(b1-3)GlcNAc(b1-2)Man
# Procedure, shortened: as §1
# [25] = biological target: Gal(a1-3)Gal(b1-3)GlcNAc(b1-2)Man(a1-3)[Gal(a1-3)Gal(b1-3)GlcNAc(b1-2)Man(a1-6)]Man(b1-4)GlcNAc(b1-4)GlcNAc
# Procedure, shortened: as §1
# [26] = biological target: Gal(a1-3)Gal(b1-3)GlcNAc(b1-3)GalNAc
# Procedure, shortened: as §1
# [27] = biological target: Gal(a1-3)Gal(b1-3)GlcNAc(b1-6)GalNAc
# Procedure, shortened: as §1
# [28] = biological target: Gal(a1-3)Gal(b1-3)[Fuc(a1-4)]GlcNAc(b1-2)Man(a1-3)[Gal(a1-3)Gal(b1-3)[Fuc(a1-4)]GlcNAc(b1-2)Man(a1-6)]Man(b1-4)GlcNAc(b1-4)GlcNAc
# Procedure, shortened: as §1
# [29] = biological target: Gal(a1-3)Gal(b1-4)Glc
# Procedure, shortened: as §1
# [30] = biological target: Gal(a1-3)Gal(b1-4)GlcNAc
# Procedure, shortened: as §1
# [31] = biological target: Gal(a1-3)Gal(b1-4)GlcNAc(b1-2)Man
# Procedure, shortened: as §1
# [32] = biological target: Gal(a1-3)Gal(b1-4)GlcNAc(b1-2)Man(a1-3)[Gal(a1-3)Gal(b1-4)GlcNAc(b1-2)Man(a1-6)]Man(b1-4)GlcNAc(b1-4)GlcNAc
# Procedure, shortened: as §1
# [33] = biological target: Gal(a1-3)Gal(b1-4)GlcNAc(b1-3)GalNAc
# Procedure, shortened: as §1
# [34] = biological target: Gal(a1-3)Gal(b1-4)GlcNAc(b1-6)GalNAc
# Procedure, shortened: as §1
# [35] = biological target: Gal(a1-3)Gal(b1-4)[Fuc(a1-3)]GlcNAc
# Procedure, shortened: as §1
# [36] = biological target: Gal(a1-3)Gal(b1-4)[Fuc(a1-3)]GlcNAc(b1-2)Man(a1-3)[Gal(a1-3)Gal(b1-4)[Fuc(a1-3)]GlcNAc(b1-2)Man(a1-6)]Man(b1-4)GlcNAc(b1-4)GlcNAc
# Procedure, shortened: as §1
# [37] = biological target: Gal(a1-3)GalNAc
# Procedure, shortened: as §1
# [38] = biological target: Gal(a1-3)[Gal(a1-4)]Gal(b1-4)GlcNAc
# Procedure, shortened: as §1
# [39] = biological target: Gal(a1-4)Gal(b1-3)GlcNAc(b1-2)Man(a1-3)[Gal(a1-4)Gal(b1-3)GlcNAc(b1-2)Man(a1-6)]Man(b1-4)GlcNAc(b1-4)GlcNAc
# Procedure, shortened: as §1
# [40] = biological target: Gal(a1-4)Gal(b1-4)Glc
# Procedure, shortened: as §1
# [41] = biological target: Gal(a1-4)Gal(b1-4)GlcNAc
# Procedure, shortened: as §1
# [42] = biological target: Gal(a1-4)Gal(b1-4)GlcNAc(b1-2)Man(a1-3)[Gal(a1-4)Gal(b1-4)GlcNAc(b1-2)Man(a1-6)]Man(b1-4)GlcNAc(b1-4)GlcNAc
# Procedure, shortened: as §1
# [43] = biological target: Gal(a1-4)Gal(b1-4)GlcNAc(b1-3)Gal(b1-4)Glc
# Procedure, shortened: as §1
# [44] = biological target: Gal(a1-4)GlcNAc
# Procedure, shortened: as §1
# [45] = biological target: Gal(a1-6)Glc
# Procedure, shortened: as §1
binder,measurement,setting,value
PfulAvr4 2 (Pseudocercospora fuligena) (protein) HHHHHHDYKDDDDKAKPIKPFACPPKDFTTTKCQGPVDCLYANPLSCLGYIQCVCDDDACSTATPYAKSCPTGLAWVEKLKRCDGIKKSACPKKMYEGS,glycan array binding signal (z-score),[1],-0.168
same,glycan array binding signal (z-score),[2],0.132
same,glycan array binding signal (z-score),[3],-0.175
same,glycan array binding signal (z-score),[4],-0.157
same,glycan array binding signal (z-score),[5],-0.253
same,glycan array binding signal (z-score),[6],-0.103
same,glycan array binding signal (z-score),[7],-0.299
same,glycan array binding signal (z-score),[8],0.113
same,glycan array binding signal (z-score),[9],-0.353
same,glycan array binding signal (z-score),[10],0.568
same,glycan array binding signal (z-score),[11],0.142
same,glycan array binding signal (z-score),[12],-0.046
same,glycan array binding signal (z-score),[13],0.605
same,glycan array binding signal (z-score),[14],-0.263
same,glycan array binding signal (z-score),[15],-0.142
same,glycan array binding signal (z-score),[16],-0.137
same,glycan array binding signal (z-score),[17],0.171
same,glycan array binding signal (z-score),[18],-0.332
same,glycan array binding signal (z-score),[19],-0.158
same,glycan array binding signal (z-score),[20],-0.111
same,glycan array binding signal (z-score),[21],0.11
same,glycan array binding signal (z-score),[22],-0.324
same,glycan array binding signal (z-score),[23],-0.37
same,glycan array binding signal (z-score),[24],-0.323
same,glycan array binding signal (z-score),[25],0.798
same,glycan array binding signal (z-score),[26],-0.14
same,glycan array binding signal (z-score),[27],-0.335
same,glycan array binding signal (z-score),[28],-0.043
same,glycan array binding signal (z-score),[29],-0.238
same,glycan array binding signal (z-score),[30],-0.188
same,glycan array binding signal (z-score),[31],-0.019
same,glycan array binding signal (z-score),[32],-0.309
same,glycan array binding signal (z-score),[33],-0.236
same,glycan array binding signal (z-score),[34],-0.286
same,glycan array binding signal (z-score),[35],-0.306
same,glycan array binding signal (z-score),[36],-0.284
same,glycan array binding signal (z-score),[37],-0.354
same,glycan array binding signal (z-score),[38],-0.334
same,glycan array binding signal (z-score),[39],0.37
same,glycan array binding signal (z-score),[40],0.873
same,glycan array binding signal (z-score),[41],-0.193
same,glycan array binding signal (z-score),[42],1.43
same,glycan array binding signal (z-score),[43],-0.267
same,glycan array binding signal (z-score),[44],-0.216
same,glycan array binding signal (z-score),[45],-0.344
